# Assay results taken from the supplement of paper PMC7266297.
# Structures can show the parent of a compound that is named as a salt. This is one part of the list. Repeats are few or missing, and single values can be far off.
# System: KB-3-1
# Assay: growth inhibition relative to DMSO control (SRB); cervical cancer cells: KB-3-1 is the parent and KB-V1 overexpresses MDR1; SRB is the sulforhodamine B stain; higher = more growth inhibition
# Conditions: 1 µM; 72 h
# 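Note: Read-out is SRB optical density at 490 nm, with the control being wells given 0.5% DMSO vehicle, and compound added one day after cells were plated.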
row,SMILES,growth inhibition [%]
1,C=CC(=O)Nc1cccc(Nc2nc(Nc3ccc(Oc4ccnc(C(=O)NC)c4)cc3)ncc2F)c1,18.8
2,CC(=O)/N=c1/sc(S(N)(=O)=O)nn1C [Methazolamide],14.1
3,CCc1c(C(=O)NCCc2ccc(N3CCCCC3)cc2)[nH]c2ccc(Cl)cc12,12.1
4,CCNC(=O)[C@H]1O[C@@H](n2cnc3c(N)nc(NCCc4ccc(CCC(=O)O)cc4)nc32)[C@H](O)[C@@H]1O,< 0
5,CC12CC3CC(C)(C1)CC(N)(C3)C2 [Memantine HCl],20.8
6,CCCCC(=O)O[C@H]1CC[C@H]2[C@@H]3CCc4cc(O)ccc4[C@H]3CC[C@]12C [Estradiol valerate],< 0
7,Cc1ccc(-n2nc(C(C)(C)C)cc2NC(=O)Nc2ccc(OCCN3CCOCC3)c3ccccc23)cc1 [BIRB 796 (Doramapimod)],21.5
8,CN(C)CCOc1ccc(/C(=C(/CCCl)c2ccccc2)c2ccccc2)cc1 [Toremifene Citrate],51.5
9,CCNC(=O)Nc1ccc(-c2nc3c(c(N4CCOC[C@@H]4C)n2)CCN(C2COC2)C3)cc1,87.5
10,COc1ccc(-n2nc(C(N)=O)c3c2C(=O)N(c2ccc(N4CCCCC4=O)cc2)CC3)cc1 [Apixaban],29.9
11,COc1cc2c(Nc3ccc(NC(=O)c4ccccc4)cc3)ncnc2cc1OCCCN1CCOCC1,72.3
12,CC(C)NCC(O)COc1ccc(COCCOC(C)C)cc1 (stereo not given) [Bisoprolol fumarate],44.9
13,COc1ccc(COc2cc3oc(=O)c4cc(C(C)O)ccc4c3cc2OC)cc1 (stereo not given) [Palomid 529 (P529)],< 0
14,Cn1c(N2CCCCS2(=O)=O)nc(C(=O)NCc2ccc(F)cc2)c(O)c1=O,96
15,Cc1c(CN2CCN(C(=O)[C@H](C)O)CC2)sc2c(N3CCOCC3)nc(-c3cnc(N)nc3)nc12,85.2
16,CC/C(=C(\c1ccccc1)c1ccc(OCCN(C)C)cc1)c1ccccc1 [Tamoxifen Citrate],52.2
17,Cc1c(NC(=O)OC[C@@H]2COCCN2)cn2ncnc(Nc3ccc4c(cnn4Cc4cccc(F)c4)c3)c12,18
18,CC(C)(C)Cn1c(N)nc2ccc(-c3[nH]c(C(C)(C)C)nc3-c3ccc(F)cc3)nc21,29.7
19,CN1CCCC(n2nc(Cc3ccc(Cl)cc3)c3ccccc3c2=O)CC1 (stereo not given) [Azelastine HCl],31.3
20,O=C(O[C@H]1CN2CCC1CC2)N1CCc2ccccc2[C@@H]1c1ccccc1 [Solifenacin succinate],< 0

row,SMILES,growth inhibition [%]
1,O=c1sn(-c2cccc3ccccc23)c(=O)n1Cc1ccccc1 [Tideglusib],< 0
2,Cc1nc(Nc2ncc(C(=O)Nc3c(C)cccc3Cl)s2)cc(N2CCN(CCO)CC2)n1 [Dasatinib],31.2
3,CCOC(=O)CCNc1cc(N2CCc3ccccc3CC2)nc(-c2ccccn2)n1,68.5
4,Cn1cncc1[C@@](N)(c1ccc(Cl)cc1)c1ccc2c(c1)c(-c1cccc(Cl)c1)cc(=O)n2C [Tipifarnib],56.2
5,O=C1CN2Cc3c(ccc(Cl)c3Cl)N=C2N1 [Anagrelide HCl],< 0
6,CC1(C)CCC(c2ccc(Cl)cc2)=C(CN2CCN(c3ccc(C(=O)NS(=O)(=O)c4ccc(N[C@H](CCN5CCOCC5)CSc5ccccc5)c(S(=O)(=O)C(F)(F)F)c4)cc3)CC2)C1 [ABT-263 (Navitoclax)],37.5
7,O=C(CCCCCN1C(=O)c2cccc3cccc(c23)C1=O)NO [Scriptaid],62.6
8,CCN(CC)CCOC(=O)c1ccc(N)cc1 [Procaine HCl],< 0
9,O=c1c(O)c(-c2ccc(O)c(O)c2)oc2cc(O)cc(O)c12 [Quercetin],< 0
10,Cc1cc(C(C)Nc2ccccc2)c2nc(N3CCOCC3)cc(=O)n2c1 (stereo not given),22.8
11,CC(C)c1onc(-c2c(Cl)cccc2Cl)c1COc1ccc(/C=C/c2cccc(C(=O)O)c2)c(Cl)c1,26.4
12,O=S(=O)(c1ccccc1)c1cnc2c(N3CCNCC3)cccc2c1,5.56
13,COc1cc(Nc2ncc(F)c(Nc3ccc4c(n3)NC(=O)C(C)(C)O4)n2)cc(OC)c1OC,< 0
14,"Cn1c(=O)n(-c2ccc(C(C)(C)C#N)cc2)c2c3cc(-c4cnc5ccccc5c4)ccc3ncc21 [BEZ235 (NVP-BEZ235, Dactolisib)]",94.7
15,Cc1ccc(NC(=O)c2cccc(C(C)(C)C#N)c2)cc1Nc1ccc2ncn(C)c(=O)c2c1,< 0
16,CN(C)CCCCC(=O)Nc1ccc(NC(=S)NC(=O)c2ccc(C(C)(C)C)cc2)cc1 [Tenovin-6],32.8
17,CCOc1cc(N)c(Cl)cc1C(=O)NCC1CN(Cc2ccc(F)cc2)CCO1 (stereo not given) [Mosapride Citrate],11.8
18,OCCOCCN1CCN(C2=Nc3ccccc3Sc3ccccc32)CC1 [Quetiapine Fumarate],49
19,O=C(Nc1ccccc1-c1cn2c(CN3CCNCC3)csc2n1)c1cnc2ccccc2n1,47.5
20,CCOC(=O)OC(C)OC1=C(C(=O)Nc2ccccn2)N(C)S(=O)(=O)c2ccccc21 (stereo not given) [Ampiroxicam],< 0
